Results from a compilation of properties of binary mixtures (doi:10.1021/acs.jpcb.0c04870).
The densities may have been worked out from excess volumes.

Assay: xn = mol fraction of the nth substance listed
Settings: 293 K, 100 kPa

**Q.** With `CS(C)=O` + CCCCCCCCn1cc[n+](C)c1.F[B-](F)(F)F as the compound, how does the mass density (x2 = 0) read?
**A.** The mass density was 1101 kg/m3.

**Q.** Which results are given for `CCCCCCCCn1cc[n+](C)c1.F[B-](F)(F)F` + CS(C)=O?
**A.** mass density (x1 = 0.01): 1101 kg/m3; mass density (x1 = 0.03): 1102 kg/m3; mass density (x1 = 0.05): 1103 kg/m3; mass density (x1 = 0.1): 1104 kg/m3; mass density (x1 = 0.2): 1104 kg/m3; mass density (x1 = 0.3): 1106 kg/m3; mass density (x1 = 0.4): 1106 kg/m3; mass density (x1 = 0.6): 1107 kg/m3; mass density (x1 = 0.8): 1108 kg/m3
